The results in this text go back to patent publication US20220089736A1.

Experiment [1] has as its target CD28 (Cluster of Differentiation 28) (human) (UniProt P10747). Nature of the experiment: flow cytometry, binding to H929 cells (carry CD28 and BCMA; binding largely dependent upon CD28 arm). (In general: Flow cytometry measures light scatter and fluorescence of single cells or particles in a stream.)
Experiment [2] shares this target. Put plainly: cell-based or functional assay.
Experiment [3] shares this target. Nature of the experiment: flow cytometry, binding to human pan T cells (dependent on the CD28 arm).

B1: VB28B3 (protein, from a related filing, not shown: a dimerising Fc or GST)
VH 1: QVQLQQWGAGLLKPSETLSLICAVYGGSFSGYYWSWIRQPPGKGLEWIGDINHSGNTNFNPSLKSRVTISVDTSKNQFSLKLSSVTAADTAVYYCAKGEAWFDPWGQGIMVTVSS
VL 1: EIVMTQSPATLSVSPGERATLSCRASQSVRSNLDWYQQKPGQAPRLLIYGASTRATGIPARFSGSGSGTEFTLTISSLQSEDFAVYYCQQYNNWPLTFGGGTKVEIK
VH 2: QVQLQESGPGLVKPSETLSLTCTVSGYSITSGYFWNWIRQPPGKGLEWIGYISYDGSNNYNPSLKSRVTISRDTSKNQFSLKLSSVTAADTAVYYCASPSPGTGYAVDYWGQGTLVTVSS
VL 2: DIQMTQSPSSLSASVGDRVTITCRSSQSLVHSNGNTYLHWYQQKPGKAPKFLIYKVSNRFSGVPSRFSGSGSGTDFTLTISSLQPEDFATYYCSQSTHVPFTFGQGTKLEIK
VH 3: [about 100 residues not given here]DEGYSSGHYYGMDVWGQGTTVTVSS
VL 3: EIVLTQSPGTLSLSPGERATLSCRASQSISSSFLTWYQQKPGQAPRLLIYGASSRATGIPDRFSGGGSGTDFTLTISRLEPEDFAVYYCQHYGSSPMYTFGQGTKLEIK
Consider B1, for which the figures for the EC50 in experiment [1] and in experiment [3] were 0.08 mg/L and 0.03 mg/L, respectively. Also, the activation of Vβ17 T cells in co-culture with H929 cells (CD25, CD71, proliferation), 96 hours in experiment [2] was 100 fold.

As usually defined, the EC50 is the midpoint of the concentration-response curve.
